Source: the supplement of paper PMC4723716
± gives the uncertainty stated by the source. Whole data set: some 9,900 compounds, median “viability index relative to DMSO control” near 1, cut for the lowest 2% near 0.85. Some of the results follow.

Test system: Plasmodium falciparum NF54 stage V gametocytes
Assay: viability index relative to DMSO control (fraction); higher = less gametocyte killing
Settings: 2.5 µM, incubation time: 72 h
Protocol: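 Broad DOS informer set and blood-stage-active DOS compounds screened in duplicate at 2.5 µM against P. falciparum NF54 stage V gametocytes with the serum-free one-step SaLSSA (1536-well): 72 h at 37 °C under low oxygen, then saponin lysis and MitoTracker Red CMXRos staining, with high-content imaging. Viability index = viable-object count divided by the plate mean of DMSO wells (0 = killed, about 1 = inactive).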

[1] = library set: Broad Institute DOS

SMILES: CCCN1[C@H](CO)[C@H](c2ccc(C#CC(C)C)cc2)[C@@H]1CN(C)S(C)(=O)=O
- viability index [1]: 0.996 ± 0.086

SMILES: C[C@@H]1CN([C@@H](C)CO)C(=O)c2cccc(NC(=O)Nc3ccc(C(F)(F)F)cc3)c2O[C@H]1CN(C)S(=O)(=O)c1cn(C)cn1
- viability index [1]: 0.952 ± 0.097

SMILES: O=C(CN1CCOCC1)N[C@H]1CC[C@H](CCn2cc(C3CC3)nn2)O[C@@H]1CO
- viability index [1]: 1.16 ± 0.021

SMILES: C[C@H](CO)N1C[C@H](C)[C@@H](CN(C)C(=O)[C@@H](Cc2ccccc2)N(C)C)OCc2ccccc2-c2ccccc2C1=O
- viability index [1]: 0.997 ± 0.086

SMILES: COc1cccc(-c2ccc3c(c2)[C@@H]2[C@@H](CCN2C(=O)c2ccccn2)[C@@H](CO)N3)c1
- viability index [1]: 1.01 ± 0.028

SMILES: CN1C(=O)c2cc(NC(=O)Nc3ccc(Cl)cc3)ccc2OC[C@H]2O[C@H](CC(=O)NCCN3CCCCC3)CC[C@@H]21
- viability index [1]: 0.941 ± 0.046

SMILES: CN(C)C(=O)c1cccc(-c2ccc([C@H]3[C@@H](CO)N4CCCCN(CC5CCOCC5)C[C@H]34)cc2)c1
- viability index [1]: 1.07 ± 0.014

SMILES: C[C@@H]1CN([C@@H](C)CO)S(=O)(=O)c2ccc(C#Cc3ccccc3F)cc2O[C@H]1CN(C)C(=O)Cc1cccnc1
- viability index [1]: 0.947 ± 0.016

SMILES: C[C@@H]1CN([C@H](C)CO)C(=O)c2cc(NS(=O)(=O)c3cccs3)ccc2O[C@@H](C)CCCCO[C@@H]1CN(C)Cc1ccc(Cl)c(Cl)c1
- viability index [1]: 0.896 ± 0.099

SMILES: CS(=O)(=O)N1CC(=O)N2[C@H](C1)[C@H](c1ccc(C#Cc3ccc(F)cc3)cc1)[C@@H]2CO
- viability index [1]: 1.04 ± 0.027

SMILES: COCC(=O)Nc1ccc2c(c1)C(=O)N(C)C[C@H](OC)[C@@H](C)CN(CCc1ccccc1)[C@H](C)CO2
- viability index [1]: 0.978 ± 0.01

SMILES: O=C(C[C@@H]1CC[C@H]2NC[C@@H](O)COC[C@@H]2O1)Nc1ccc(-c2ccccc2)cc1
- viability index [1]: 0.826 ± 0.077

SMILES: CO[C@@H]1CN(C)C(=O)c2ccc(NS(=O)(=O)c3ccc(C)cc3)cc2OC[C@@H](C)N(C)C[C@H]1C
- viability index [1]: 1.09 ± 0.02

SMILES: C[C@@H](NC(=O)C[C@H]1C[C@H]2c3cc(NS(=O)(=O)c4ccc(F)cc4)ccc3O[C@H]2[C@H](CO)O1)c1ccccc1
- viability index [1]: 1.077 ± 0.01

SMILES: O=C(Nc1ccc(F)cc1)N1CC(=O)N2[C@H](CO)[C@@H](c3ccc(-c4cccc(F)c4)cc3)[C@H]2C1
- viability index [1]: 1.05 ± 0.064

SMILES: O=C(O)[C@H]1[C@H](CO)[C@H]2Cn3c(cccc3=O)[C@H]2N1C(=O)NC1CCCC1
- viability index [1]: 0.9945 ± 0.0021

SMILES: COCC(=O)Nc1ccc2c(c1)C(=O)N(C)[C@@H]1CC[C@@H](CC(=O)N3CCc4ccccc4C3)O[C@@H]1CO2
- viability index [1]: 1.03 ± 0.051

SMILES: C[C@H](CO)N1C[C@H](C)[C@H](CN(C)C(=O)Nc2ccc(C(F)(F)F)cc2)Oc2ncc(C3=CCCC3)cc2C1=O
- viability index [1]: 0.9836 ± 0.0045

SMILES: CCN(C[C@H]1[C@H](c2ccc(-c3cccnc3)cc2)[C@H](CO)N1C(C)=O)C(C)=O
- viability index [1]: 1.02 ± 0.041

SMILES: COc1cccc(C(=O)N2C[C@@H]3[C@H](c4ccccc42)[C@H](CO)N3C(=O)c2cccc(F)c2)c1
- viability index [1]: 1.07 ± 0.072

SMILES: Cc1noc(C)c1S(=O)(=O)Nc1ccc2c(c1)C(=O)N([C@H](C)CO)C[C@H](C)[C@@H](CN(C)Cc1ccc(C(=O)O)cc1)OCCCC[C@H](C)O2
- viability index [1]: 1.04 ± 0.037

SMILES: COc1ccc2c3c([nH]c2c1)[C@H](CO)N(C[C@]31CCN(CC1)C(=O)c1ccncc1)C(=O)C1CC1
- viability index [1]: 0.972 ± 0.024

SMILES: COCC(=O)N1[C@H](C#N)[C@H](c2ccccc2C2=CCCC2)[C@@H]1CO
- viability index [1]: 1.05 ± 0.065

SMILES: CC(C)NC(=O)Nc1ccc2c(c1)C(=O)N(C)[C@@H]1CC[C@@H](CC(=O)NCc3ccc(F)cc3)O[C@H]1CO2
- viability index [1]: 1.05 ± 0.0075

SMILES: CO[C@@H]1CN(C)C(=O)c2ccc(NC(=O)Nc3ccccc3Cl)cc2OC[C@H](C)NC[C@@H]1C
- viability index [1]: 1 ± 0.032

SMILES: C[C@@H]1CN([C@@H](C)CO)C(=O)c2cccc(NC(=O)c3cnccn3)c2O[C@@H]1CN(C)C(=O)NC1CCCCC1
- viability index [1]: 1.04 ± 0.085

SMILES: O=C(c1ccc2c(c1)OCO2)N1C[C@@H]2N[C@H](C1)[C@H]2c1ccc(/C=C/c2ccccc2)cc1
- viability index [1]: 1.05 ± 0.017

SMILES: CCN1[C@@H]2c3ccc(-c4ccccc4OC)c(=O)n3C[C@H]1[C@H](CO)[C@H]2C(=O)NCc1ccccn1
- viability index [1]: 1.018 ± 0.0036

SMILES: OC[C@@H]1[C@H](c2ccc(C#CC3(O)CCCC3)cc2)[C@@H]2CN(Cc3cncnc3)CCCCN12
- viability index [1]: 1.07 ± 0.035

SMILES: C[C@@H]1CN([C@@H](C)CO)C(=O)CCCn2nncc2CO[C@H]1CN(C)CC1CCCCC1
- viability index [1]: 0.986 ± 0.07

SMILES: CN(C[C@H]1[C@@H](c2ccc(C3=CCCC3)cc2)[C@@H](CO)N1CCC(F)(F)F)S(C)(=O)=O
- viability index [1]: 1.02 ± 0.046

SMILES: CN1C(=O)c2cc(NC(=O)Nc3ccc(Cl)cc3)ccc2OC[C@@H]2O[C@@H](CC(=O)NCCN3CCCCC3)CC[C@H]21
- viability index [1]: 0.838 ± 0.04

SMILES: COc1ccc(S(=O)(=O)Nc2ccc3c(c2)C(=O)N([C@H](C)CO)C[C@@H](C)[C@H](CN(C)Cc2ccc(C(F)(F)F)cc2)OCCCC[C@H](C)O3)cc1
- viability index [1]: 0.951 ± 0.019

SMILES: COc1ccc2c3c([C@H](CO)N(CC4CC4)C[C@]33CCN(CC3)C(=O)NC3CCCC3)n(C)c2c1
- viability index [1]: 0.955 ± 0.05

SMILES: COc1ccc(CN(C)C[C@@H]2OCCCC[C@H](C)Oc3ccc(NC(=O)C4CCCCC4)cc3C(=O)N([C@H](C)CO)C[C@H]2C)cc1
- viability index [1]: 1.03 ± 0.037

SMILES: COc1ccccc1S(=O)(=O)N1CC[C@@H]2[C@H]1c1cc(-c3cccc(C#N)c3)ccc1N(C)[C@H]2CO
- viability index [1]: 0.876 ± 0.046

SMILES: CCCNC(=O)C[C@H]1CC[C@@H]2[C@@H](COc3ccc(NC(=O)CC)cc3C(=O)N2C)O1
- viability index [1]: 1.05 ± 0.03

SMILES: CO[C@@H]1CN(C)C(=O)c2cc(NC(=O)C3CCCCC3)ccc2OC[C@@H](C)N(Cc2cccnc2)C[C@@H]1C
- viability index [1]: 1.11 ± 0.041

SMILES: COc1ccccc1NC(=O)N1C[C@H](O)COC[C@@H]2O[C@@H](CC(=O)N3CCC(Cc4ccccc4)CC3)CC[C@H]21
- viability index [1]: 1.02 ± 0.049

SMILES: C[C@H]1CN([C@@H](C)CO)C(=O)c2cc(-c3cccc(C#N)c3)cnc2O[C@@H]1CN(C)C(=O)C1CCOCC1
- viability index [1]: 1.04 ± 0.025

SMILES: CO[C@H]1CN(C)C(=O)c2cccc(C#N)c2OCC[C@@H]2CC[C@@H](OC)[C@@H](CN(C)C(=O)[C@H]1C)O2
- viability index [1]: 1.063 ± 0.0072

SMILES: CCS(=O)(=O)Nc1ccc2c(c1)C(=O)N(C)[C@H]1CC[C@@H](CC(=O)NCc3ccc(OC)cc3)O[C@H]1CO2
- viability index [1]: 1.02 ± 0.059

SMILES: COc1cccc(NC(=O)Nc2ccc3c(c2)C(=O)N(C)C[C@@H](OC)[C@@H](C)CN(CC2CC2)[C@@H](C)CO3)c1
- viability index [1]: 0.986 ± 0.13

SMILES: Cc1noc(C)c1NC(=O)Nc1ccc2c(c1)C(=O)N([C@H](C)CO)C[C@H](C)[C@H](CN(C)S(=O)(=O)c1ccc(F)cc1)O2
- viability index [1]: 0.986 ± 0.086

SMILES: COc1cccc(NC(=O)N2CC(=O)N3[C@H](CO)[C@@H](c4ccc(C#CCC5CCCC5)cc4)[C@@H]3C2)c1
- viability index [1]: 1.03 ± 0.018

SMILES: CNC[C@H]1Oc2ccc(NC(=O)CCC(F)(F)F)cc2C(=O)N([C@H](C)CO)C[C@@H]1C
- viability index [1]: 1.01 ± 0.024

SMILES: COc1ccc2c3c([C@@H](CO)N(Cc4ccc(F)cc4)C[C@]33CCN(C)CC3)n(C)c2c1
- viability index [1]: 0.916 ± 0.1

SMILES: Cc1noc(C)c1NC(=O)N(C)C[C@@H]1OCc2ccccc2-c2c(n(C)c3ccccc23)C(=O)N([C@@H](C)CO)C[C@H]1C
- viability index [1]: 1.02 ± 0.1

SMILES: C[C@@H]1CN([C@H](C)CO)C(=O)c2cc(NS(=O)(=O)c3cn(C)cn3)ccc2O[C@H]1CN(C)S(=O)(=O)c1ccc(F)cc1
- viability index [1]: 0.919 ± 0.11

SMILES: C[C@@H]1CN([C@H](C)CO)C(=O)CCCn2nncc2CO[C@H]1CN(C)C(=O)Nc1ccc(-c2cccs2)cc1
- viability index [1]: 1.096 ± 0.0014

SMILES: O=C(C[C@H]1CC[C@H]2[C@@H](COC[C@H](O)CN2C(=O)Cc2ccccc2)O1)NC1Cc2ccccc2C1
- viability index [1]: 1.05 ± 0.091

SMILES: C[C@H]1CN([C@@H](C)CO)C(=O)CCCn2cc(nn2)CO[C@H]1CN(C)C(=O)CCC(F)(F)F
- viability index [1]: 1.05 ± 0.013

SMILES: O=C(CCN1CCCCC1)NCC[C@H]1CC[C@@H](NS(=O)(=O)c2cccc(Cl)c2)[C@H](CO)O1
- viability index [1]: 0.973 ± 0.044

SMILES: O=C(NC1CCCC1)N[C@H]1C=C[C@H](CC(=O)N2CCOCC2)O[C@@H]1CO
- viability index [1]: 1.03 ± 0.033

SMILES: CN1c2ccc(Br)cc2[C@@H]2[C@@H](CCN2C(=O)CN2CCOCC2)[C@@H]1CO
- viability index [1]: 1.09 ± 0.055

SMILES: O=C(CC1CC1)N1[C@@H]2CN(S(=O)(=O)c3ccccc3F)c3ccccc3[C@@H]2[C@@H]1CO
- viability index [1]: 1.03 ± 0.048

SMILES: CN1C(=O)c2cc(NC(=O)C3CCOCC3)ccc2OC[C@@H]2O[C@@H](CC(=O)NCC3CCCCC3)CC[C@@H]21
- viability index [1]: 1.14 ± 0.16

SMILES: COCC#Cc1ccc([C@@H]2[C@H](CO)N3C(=O)CN(C(=O)CN4CCOCC4)C[C@@H]23)cc1
- viability index [1]: 1.02 ± 0.05

SMILES: CCCC(=O)N1CC[C@@]2(CC1)CN([C@@H](CO)c1[nH]c3cc(OC)ccc3c21)S(=O)(=O)c1ccc(C)cc1
- viability index (library set: Broad Institute Blood Stage): 0.655 ± 0.046

SMILES: CCc1nc(N2[C@H](CO)[C@H](c3ccccc3-c3ccccc3C)[C@@H]2C#N)sc1C
- viability index [1]: 1.06 ± 0.046

SMILES: C[C@H](NC(=O)C[C@@H]1C[C@@H]2c3cc(NS(=O)(=O)c4ccc(F)cc4)ccc3O[C@@H]2[C@H](CO)O1)c1ccccc1
- viability index [1]: 1.06 ± 0.034

SMILES: COc1cccc(S(=O)(=O)N[C@H]2CC[C@@H](CC(=O)NC3Cc4ccccc4C3)O[C@H]2CO)c1
- viability index [1]: 0.916 ± 0.086

SMILES: OC[C@@H]1[C@@H]2c3ccccc3NC[C@@H]2N1Cc1ccccc1Cl
- viability index [1]: 0.979 ± 0.024

SMILES: C[C@H]1CN([C@@H](C)CO)C(=O)c2c(c3ccccc3n2C)-c2ccccc2CO[C@H]1CN(C)S(=O)(=O)c1ccc([N+](=O)[O-])cc1
- viability index [1]: 1.04 ± 0.047

SMILES: CO[C@@H]1CN(C)C(=O)c2ccc(NC(=O)Nc3c(C)noc3C)cc2OC[C@H](C)N(CCC(F)(F)F)C[C@H]1C
- viability index [1]: 1.09 ± 0.002

SMILES: O=C(CCN1CCCCC1)N[C@H]1CC[C@H](CC(=O)N2CCC(Cc3ccccc3)CC2)O[C@@H]1CO
- viability index [1]: 1.05 ± 0.051

SMILES: COCC(=O)Nc1ccc2c(c1)[C@@H]1C[C@H](CC(=O)N[C@@H](C)c3ccccc3)O[C@@H](CO)[C@@H]1O2
- viability index [1]: 1.029 ± 0.0091

SMILES: COc1ccc(NC(=O)N(C)C[C@H]2Oc3c(NS(=O)(=O)c4c(C)noc4C)cccc3C(=O)N([C@@H](C)CO)C[C@H]2C)cc1
- viability index [1]: 0.9888 ± 0.0037
